Source: US20260284066A1, “TYK2 INHIBITORS AND COMPOSITIONS AND METHODS THEREOF” (LYNK PHARMACEUTICALS CO. LTD., priority 2023, published 2026)

Test system: Ba/F3-FL-TYK2-P760L cells
Test: Anti-proliferative assay in Ba/F3-FL-TYK2-P760L cells (Cell-Titer Glo)
Type: cell-based
Settings: 72 h, read-out: Baf3-FL-T2P760L (nM)

With `[2H]C([2H])([2H])NC(=O)c1cnc(NC(=O)C2CC2)cc1Nc1ncc2cnn(COCC[Si](C)(C)C)c2c1OC` [Example 1, 6-(Cyclopropanecarboxamido)-4-((7-methoxy-1-((2-(trimethylsilyl)ethoxy)methyl)-1H-pyrazolo[4,3-c]pyridin-6-yl)amino)-N-(methyl-d3)nicotinamide] the IC50 was 442 nM.
